According to PubChem BioAssay AID485344 (National Center for Advancing Translational Sciences (NCATS), 2010):
Hit rate of the full screen: of about 340,000 compounds, about 6,900 (2%) were called active. Rule as the data show it: active = inhibition above about 30%; inactive = below that, where a call was filed. The entries are a selection whose mix differs from that of the whole data set. Entries without a call were filed so in the source. Some structures have more than one record in an assay (separate samples or runs), and their calls can disagree.

target: D(2) dopamine receptor (Homo sapiens) (UniProt P14416); experiment: HTS Assay for Allosteric Antagonists of the Human D2 Dopamine Receptor: Primary Screen for Antagonists; conditions: HEK293 TREx D2 cells, calcium flux, dopamine EC80; at 10 µM; stronger effect = higher value; also: 0% is about no effect
Chain of UniProt P14416 (P14416 whole entry, looked up): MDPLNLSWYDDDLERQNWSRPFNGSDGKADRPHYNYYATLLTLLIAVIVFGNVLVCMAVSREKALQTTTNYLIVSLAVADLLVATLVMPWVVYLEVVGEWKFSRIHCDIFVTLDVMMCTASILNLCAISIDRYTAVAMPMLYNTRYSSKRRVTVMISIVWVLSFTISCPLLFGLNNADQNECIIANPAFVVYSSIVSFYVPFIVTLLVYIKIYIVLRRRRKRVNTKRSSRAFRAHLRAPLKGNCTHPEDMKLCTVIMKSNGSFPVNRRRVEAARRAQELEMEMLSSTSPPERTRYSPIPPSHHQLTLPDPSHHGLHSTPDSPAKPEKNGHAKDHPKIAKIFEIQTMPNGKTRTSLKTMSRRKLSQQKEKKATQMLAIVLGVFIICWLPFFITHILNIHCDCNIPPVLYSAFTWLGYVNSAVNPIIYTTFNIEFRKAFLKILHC
Summary of the method: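 Inhibition of EC80 dopamine-driven calcium flux, recorded kinetically, defines activity here; cells are a tetracycline-induced HEK293 T-REx line expressing force-coupled D2.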

Row | Structure (SMILES) | inhibition
1 | CCc1ccc(NC(=O)Cn2c(=O)n(CCC(=O)NCc3ccc4c(c3)OCO4)c(=O)c3ccccc32)cc1 | -9.95%
2 | CCC1CN(C(=O)Nc2cc(C)cc(C)c2)c2ccccc2O1 (stereo unspecified) | 9.06%
3 | Cc1cc(NC(=O)c2cc(-c3ccc(Cl)cc3)on2)nn1Cc1ccc(Cl)cc1 | -7.91%
4 | NC(=O)c1ccc(NCc2ccco2)c([N+](=O)[O-])c1 | active: 34.5%
5 | Cc1c(C)n(Cc2ccccc2)c2ccc(C(=O)NCc3ccco3)cc12 | -7.22%
6 | Cc1c(-c2nsc(NC(=O)c3cccs3)n2)nnn1-c1ccc(Br)cc1 | 8.52%
7 | CC(C)(C)c1ccc(C(=O)NC2CCN(Cc3ccccc3)CC2)cc1 | active: 53.9%
8 | O=C(CCn1ccc2cc(S(=O)(=O)N3CCCC3)ccc21)NCc1cccc(Br)c1 | -2.37%
9 | Cc1ccc(C)c(Nc2nn3c(=O)c4ccc(C(=O)NC5CCCCC5)cc4nc3s2)c1 | 4.83%
10 | Cc1ccc(C(=O)NCC(c2cccnc2)N2CCc3ccccc32)cc1C (stereo unspecified) | -24.9%
11 | Cc1ccc(-c2nc3ncccc3o2)cc1NC(=O)c1cccc(OCC(C)C)c1 | -3.43%
12 | O=C(O)c1ccc(-n2nnnc2SCc2ccccc2F)cc1 | active: 37.2%
13 | CN(C)S(=O)(=O)c1ccc2c(c1)nnn2CCNC(=O)Nc1ccc(Br)cc1 | 12.3%
14 | O=C(C1CC1)N1CCN(c2nc3ccc(F)cc3s2)CC1 | 3.05%
15 | Cn1c(=O)c2c(nc(NCc3ccccc3)n2Cc2ccccc2Cl)n(C)c1=O | 2.84%
16 | CCCCOc1ccc(CNC(=O)c2cnc3sc(N4CCOCC4)nn3c2=O)cc1 | 1.67%
17 | COc1cccc(OCc2nc3ccccc3n2CCOc2ccccc2C)c1 | -8.84%
18 | COc1ccc(S(=O)(=O)NCC(c2ccco2)N2CCOCC2)cc1 (stereo unspecified) | -16%
19 | CCOC(=O)C1CCCN(CCCc2ccccc2)C1 (stereo unspecified) | active: 70%
20 | Cc1cc(C)cc(NC(=O)CSc2oc(-c3cccs3)nc2S(=O)(=O)c2ccccc2)c1 | -0.926%
21 | Cn1c(=O)cc(OCC(=O)NCCCN2CCN(c3cccc(Cl)c3)CC2)c2ccccc21 | active: 77.2%
22 | CC1CCN(S(=O)(=O)c2cc3c4c(c2)CC(=O)N4CCC3)CC1 | -20.1%
23 | Fc1ccc(-c2cc(-c3ccccc3)c3c(n2)-c2cc(F)ccc2OC3)cc1 | 10%
24 | Cc1ccc(-c2c(C)n3c4c(=O)n(C)c(=O)n(C)c4nc3n2-c2cccc(O)c2)cc1 | -21.7%

Row | Structure (SMILES) | inhibition
25 | COc1ccc(NC(=O)CSc2nc3cc(OC)c(OC)cc3c3nc(-c4ccccc4)nn23)cc1Cl | -6.89%
26 | COc1ccccc1CNCC(=O)Nc1cc(S(=O)(=O)N2CCOCC2)ccc1Cl | active: 84.8%
27 | COc1cc(-c2ccno2)ccc1S(=O)(=O)N1CCN(c2ccccc2F)CC1 | 5.19%
28 | COC(=O)c1ccc(NC(=O)C(=O)NCCc2sc(-c3cccc(F)c3)nc2C)cc1 | -13.1%
29 | COc1ccc(CC(=O)NCc2nc3cccnc3n2Cc2ccc(C)cc2)cc1 | -22.8%
30 | CCOC(=O)c1cc(S(=O)(=O)N2CCN(c3cc(C)ccc3C)CC2)[nH]n1 | -6.75%
31 | COc1ccccc1Nc1nn2c(=O)c3ccc(C(=O)N4CCCCC4)cc3nc2s1 | 14.6%
32 | Cc1cccc(C)c1N1CC(c2nc3ccccc3n2CC(=O)OC(C)C)CC1=O (stereo unspecified) | -5.86%
33 | CC(=O)Nc1cccc(Oc2ncnc3scc(-c4ccc(C)cc4)c23)c1 | active: 33.9%
34 | Cc1ccc(OCC(=O)Nc2ccccc2C(=O)OCc2cc(=O)n3ccsc3n2)cc1C | -4.68%
35 | COc1ccc(CCNC(=O)CN(c2cc(C(F)(F)F)ccc2Cl)S(C)(=O)=O)cc1 | -5.92%
36 | Cc1ccccc1NC(=S)N1CCCC(c2nc3ccccc3[nH]2)C1 (stereo unspecified) | active: 32%
37 | COC(=O)c1sc(NC(=O)c2cc3nc(-c4ccc(Br)cc4)cc(C(F)(F)F)n3n2)c(C(=O)OC)c1C | 6.77%
38 | CCc1ccc(NC(=O)c2cc3nc(-c4ccc(C)cc4)cc(C(F)(F)F)n3n2)cc1 | 12.2%
39 | CCOC(=O)c1c(NC(=O)Cc2coc3cc(C)ccc23)sc2c1CCCC2 | -3.12%
40 | O=C(O)Cc1sc(Nc2ccccc2Cl)nc1-c1ccccc1 | -4.2%
41 | COc1ccccc1N1CCN(S(=O)(=O)c2c(C)sc3ncn(CC(=O)Nc4ccc(C(F)(F)F)cc4)c(=O)c23)CC1 | 6.47%
42 | CC(=O)c1ccc(NC(=O)C2CCCN(S(=O)(=O)c3ccc4c(c3)CCCN4C(C)=O)C2)cc1 (stereo unspecified) | -0.676%
43 | CCCCn1c(=O)c(C(=O)OCC)c(O)c2ccccc21 | active: 38.4%
44 | Cc1cc(C)c(NC(=O)CCCN2C(=O)COc3ccc(C)cc32)c(C)c1 | 0.939%
45 | CC(=O)c1cccc(OCC(O)CNCCOc2ccc(C)cc2)c1 (stereo unspecified) | active: 42.5%
46 | Cc1cc2ncn(/N=C/c3ccc4c(c3)OCO4)c2cc1C | active: 89%
47 | COc1ccc(-c2c(C)nn3c4c(cnc23)C(=O)CC(c2ccccc2)C4)cc1 (stereo unspecified) | 9.18%
48 | O=C(CS(=O)(=O)c1cccc2nsnc12)NCc1ccc(Cl)cc1 | -6%

Row | Structure (SMILES) | inhibition
49 | CC(NC(=O)c1ccc(Nc2nc3ccccc3n3nnnc23)cc1)c1ccccc1 (stereo unspecified) | 6.65%
50 | CCOc1cc(CNc2ncnc3nc[nH]c23)ccc1OC | active: 37.6%
51 | CCCCN(C)CCCNC(=O)CN1C(=O)COc2ccc(S(=O)(=O)N3CCOCC3)cc21 | -4.37%
52 | Cc1nc2nc(-c3ccc(Cl)cc3Cl)nn2c(C)c1CCC(=O)Nc1ccc(F)cc1 | -3.74%
53 | COc1cccc(N2CC(NC(=O)c3ccc4c(c3)OCO4)CC2=O)c1 (stereo unspecified) | -1.43%
54 | CCC1CN(C(=O)N2CCC(C(=O)Nc3cc(C)ccc3C)CC2)c2ccccc2O1 (stereo unspecified) | -14.7%
55 | COc1cc(C2c3c(oc4ccccc4c3=O)C(=O)N2c2nncs2)cc(OC)c1OC (stereo unspecified) | 3.33%
56 | COc1ccc(C(CC(=O)Nc2cccc(C)c2C)N2Cc3ccccc3C2=O)cc1 (stereo unspecified) | -0.747%
57 | Cc1cccc(-c2cc(NC(=O)C(C)(C)C)n(-c3ccccc3)n2)c1 | 4.62%
58 | CC1CCN(CCc2nc3cc(NC(=O)COc4ccccc4)ccc3n2C)CC1 | active: 59.1%
59 | O=C(COc1ccc(F)cc1)Nc1ccccc1C(=O)OCc1cc(=O)n2nc(C3CC3)sc2n1 | -23.2%
60 | Cc1nc2nc(SCc3ccc(F)cc3Cl)nn2c(C)c1Cc1ccccc1 | 14.3%
61 | CCOc1ccc(-c2cn3c(n2)sc2cc(C(=O)NCCCc4ccccc4)ccc23)cc1 | -9.54%
62 | CC(C)(C)c1ccc(C(=O)N2CC(=O)Nc3ccc(F)cc3C2c2ccc(F)cc2)cc1 (stereo unspecified) | -17.4%
63 | COc1cc(C2c3c(oc4ccccc4c3=O)C(=O)N2Cc2ccccc2Cl)ccc1O (stereo unspecified) | 4.05%
64 | COc1cc(CCC(=O)NCc2ccc3c(c2)CCN3C(=O)c2cccc(C)c2)cc(OC)c1OC | -28%
65 | O=C(N/N=C/c1ccccc1OC(F)F)C1=COCCO1 | active: 32.5%
66 | Cc1ccc(Nc2cc(C(=O)NC3CCCC3)c3ccccc3n2)c(C)c1 | 4.86%
67 | COc1ccc(NC(=O)CSC2=Nc3ccccc3C3=NC(Cc4ccccc4)C(=O)N23)cc1Cl (stereo unspecified) | -15.2%
68 | CN(Cc1ccccc1)C(=O)Cn1ncc2c3ccccc3n(Cc3cccc(Cl)c3)c2c1=O | 4.93%
69 | Cc1ccc(Cl)cc1Nc1sc(C(=O)c2ccccc2)c(N)c1S(=O)(=O)c1ccccc1 | -2.93%
70 | CCN(CC)S(=O)(=O)c1ccc2c(c1)nc(SCC(=O)NC1CC1)n2-c1ccccc1OC | active: 50.5%
71 | Cc1ccccc1Cn1c(Oc2ccccc2F)nc2c1c(=O)n(C)c(=O)n2C | 14.2%
72 | Cc1ccc(NC(=O)Cn2c(=O)c(C(F)(F)F)nc3ccccc32)c(C)c1 | 5.28%

Row | Structure (SMILES) | inhibition
73 | CCCCN(CC)CCNC(=O)Cn1c(=O)c2cccn2c2cccnc21 | 4.03%
74 | Cc1ccc(N2CCN(C(=O)C3CCC(CNS(=O)(=O)c4ccc(Br)s4)CC3)CC2C)cc1 (stereo unspecified) | 2.46%
75 | COc1ccc2cc(CNc3ccccc3)c(=O)n(CC(=O)Nc3ccc(C)cc3C)c2c1 | -6.64%
76 | Cc1ccc2nc(SCc3nc(-c4ccccc4C)no3)[nH]c2c1 | 5.8%
77 | Cc1ccc(C(=O)CCNc2ccccc2)o1 | active: 32.5%
78 | Cc1ccc2c(CC(=O)Nc3c(C(=O)Nc4cccc(Cl)c4)oc4ccccc34)coc2c1C | -8.96%
79 | COc1cccc(CNC(=O)c2cc3c(=O)n(C)c4ccccc4c3n2C)c1 | 12.4%
80 | COc1ccccc1CCNC(=O)CCc1c(C)c2cc3c(C)coc3cc2oc1=O | 5.93%
81 | Cc1ccc(C)c(N2CCN(C(=O)c3cccn3-c3nnc(N4CCCCC4)s3)CC2)c1 | 5.96%
82 | Nc1c2c(nc3ccc(Br)cc13)N(C1CCCCC1)CC2 | active: 74.2%
83 | COCCn1c(C)cc(O)c(C(c2ccccc2OC)N2CCCCC2)c1=O (stereo unspecified) | 6.99%
84 | COc1ccc(C(CC(=O)Nc2ccc(OC)c(OC)c2)N2Cc3ccccc3C2=O)cc1 (stereo unspecified) | -7%
85 | COc1ccc(OC)c(CCNC(=O)c2ccc3[nH]c(C)c(C)c3c2)c1 | 16.8%
86 | Cc1nn2c(C(F)(F)F)cc(-c3ccc(OC(C)C)cc3)nc2c1C#N | 7.97%
87 | Cc1ccccc1OCC(=O)Nc1ccccc1C(=O)OCc1cc(=O)n2c(C)csc2n1 | 7.11%
88 | CCOc1ccccc1CNC(=O)c1[nH]c2ccccc2c1Sc1ccccc1 | -2.8%
89 | CCc1nc2ccc(C(=O)NCCc3ccc(OC)c(OC)c3)cc2nc1CC | 2.07%
90 | O=C(c1ccco1)N1CCN(c2nc3ccc(Cl)cc3s2)CC1 | -24%
91 | O=S(=O)(c1ccc(-c2cc(C(F)(F)F)on2)s1)N1CCN(c2cccc(Cl)c2)CC1 | 3.49%
92 | CCN1CCN(CCCNC(=O)c2cc3c(s2)-c2c(C)cccc2OC3)CC1 | 3.51%
93 | CCN(CC)CCCNC(=O)CCc1c(C)n(CC)c2cc(-c3ccccc3OC)nn2c1=O | -8.31%
94 | Cc1ncc(COC(=O)C(C)C)c2cc(C(=O)Nc3ccccc3C(F)(F)F)c(=O)oc12 | 9.68%
95 | CCCCn1c(CNC(=O)C23CC4CC(CC(C4)C2)C3)nnc1SCC(=O)Nc1ccccc1 | -2.82%
96 | CCOc1ccc(CCNc2ncnc3onc(-c4ccc(F)cc4)c23)cc1OCC | -1.71%
